Laboratory results as given in the supplement of paper PMC12217912.
This is one part of the list. The full chains were built here from the parent and the listed change. Inactive controls read about 0.05.

B1: TEV protease; numbered along this chain (parent)
chain: MGESLFKGPRDYNPISSSICHLTNESDGHTTSLYGIGFGPFIITNKHLFRRNNGTLVVQSLHGVFKVKDTTTLQQHLVDGRDMIIIRMPKDFPPFPQKLKFREPQREERICLVTTNFQTKSMSSMVSDTSCTFPSGDGIFWKHWIQTKDGQCGSPLVSTRDGFIVGIHSASNFTNTNNYFTSVPKNFMELLTNQEAQQWVSGWRLNADSVLWGGHKVFMVKPEEPFQPVKEATQL

Variants of: B1
Test: raw area under fraction-flipped curve 0-4 h after induction (AUC4h, not background-subtracted), DNA-recorder readout of cleavage of the substrate (dimensionless); higher = more cleavage of the substrate by the protease variant
Settings: temperature: 34 °C; time window: 0-4 h after rhamnose induction
Description: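 In vivo DNA recorder in E. coli TOP10(DE3) ΔrhaA at 34 °C. Each TEVp single-site mutant (parent TEVp 0) is paired with a single-site variant of the 7-mer TEVs (canonical ENLYFQ|S). The substrate sits between flexible linkers in a Bxb1-sfGFP-TEVs-SsrA fusion, so cleavage stabilises Bxb1 and speeds flipping of a recombination array, read by NGS. The value is the raw area under the fraction-flipped curve over 0-4 h after rhamnose induction (AUC4h), with ≥20 reads per time point. It is not background-subtracted; inactive controls average about 0.047.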
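Further: Bxb1 expression induced with 0.2% (w/v) L-rhamnose at OD600 near 0.5, cultures sampled hourly, flipped fraction per protease–substrate barcode pair counted by paired-end Illumina sequencing.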

Variant | area with substrate EALYFQS | area with substrate ECLYFQS | area with substrate EDLYFQS | area with substrate EELYFQS | area with substrate EILYFQS | area with substrate EKLYFQS | area with substrate ELLYFQS | area with substrate EMLYFQS | area with substrate EPLYFQS | area with substrate EQLYFQS | area with substrate ESLYFQS | area with substrate EVLYFQS | area with substrate EYLYFQS | area with substrate EFLYFQS | area with substrate EGLYFQS | area with substrate EHLYFQS | area with substrate ERLYFQS | area with substrate ETLYFQS | area with substrate EWLYFQS
MGESLFKGPRDYNPISSSICHLTNESDGHTTSLYGIGFGPFIIVNKHLFRRNNGTLVVQSLHGVFKVKDTTTLQQHLVDGRDMIIIRMPKDFPPFPQKLKFREPQREERICLVTTNFQTKSMSSMVSDTSCTFPSGDGIFWKHWIQTKDGQCGSPLVSTRDGFIVGIHSASNFTNTNNYFTSVPKNFMELLTNQEAQQWVSGWRLNADSVLWGGHKVFMVKPEEPFQPVKEATQL [T44V] | 0.0948 | 0.0793 | 0.107 | 0.0473 | 0.0697 | 0.0735 | 0.0691 | 0.074 | 0.0625 | 0.078 | 0.0834 | 0.0675 | 0.0612 | – | – | – | – | – | –
MGESLFKGPRDYNPISSSICHLTNESDGHTTSLYGIGFGPFIITNKHLFRRNNGTLVVQSLHGVFKVKDTTTLQQHLVDGRDMIIIRMPKDFPPFPQKLKFREPQREERICLVTTNFQTKSMSSMVSDTSCTFPSGDGIFWKHWIQTKDGQCGSPLVSTRDGFIVGIHSASNFTNTNNYFTSVPKNFMELLTNQEAQQWVSGWRLNADSVLWGGHKVFMVKPEEPFQPVKRATQL [E231R] | 0.114 | 0.0946 | – | – | 0.119 | 0.0966 | – | – | – | 0.117 | – | 0.0787 | 0.106 | 0.088 | 0.109 | 0.0869 | 0.0957 | – | –
MGESLFKGPRDYNPISSSICHLTNESDGHTTSLYGIGFGPFIITNKHLFRRNNGTLVVQSLHGVFKVKDTTTLQQHLVDGRDMIIIRMPKDFPMFPQKLKFREPQREERICLVTTNFQTKSMSSMVSDTSCTFPSGDGIFWKHWIQTKDGQCGSPLVSTRDGFIVGIHSASNFTNTNNYFTSVPKNFMELLTNQEAQQWVSGWRLNADSVLWGGHKVFMVKPEEPFQPVKEATQL [P94M] | 0.141 | – | 0.148 | 0.126 | – | – | – | – | 0.153 | 0.115 | 0.112 | 0.0856 | – | – | 0.111 | – | 0.0301 | 0.101 | –
MGESLFKGPRDYNPISSSICHLTNESDGHTTSLYGIGFGPFIITNKHLFRRNNGTLVVQSLHGVFKVKDTTTLQQHLVDGRDMIIIRMPKDFPPFPQKLKFREPQREERICLVTTNFQTKSMSSMVSDTSCTFPSGDGIFYKHWIQTKDGQCGSPLVSTRDGFIVGIHSASNFTNTNNYFTSVPKNFMELLTNQEAQQWVSGWRLNADSVLWGGHKVFMVKPEEPFQPVKEATQL [W141Y] | 0.112 | 0.0743 | – | 0.135 | – | 0.0729 | – | 0.0578 | – | 0.0958 | 0.0753 | – | 0.101 | – | 0.0835 | – | 0.0776 | – | –
MGESLFKGPRDYNPISSSICHLTNESDGHTTSLYGIGFGPFIITNKHLFRRNNGTLVVQSLHGVFKVKDTTTLQQHLVDGRDMIIIRMPKDFPPFPQKLKFREPQREERICLVTTNFQTKSMSSMVSDTSCTFPSGDGIFWKHWIQTKDGQCGSPLVSTRDGFSVGIHSASNFTNTNNYFTSVPKNFMELLTNQEAQQWVSGWRLNADSVLWGGHKVFMVKPEEPFQPVKEATQL [I164S] | 0.0493 | 0.0556 | 0.0462 | – | 0.0371 | – | 0.0603 | – | 0.0389 | – | 0.0493 | 0.0312 | – | 0.0537 | 0.0592 | – | – | – | 0.0495
MGESLFKGPRDYNPISSSICHLTNESDGHTTSLYGIGFGPFIITNKHLFRRNNGTLVVQSLHGVFKVKDTTTLQQHLVDGRDMIIIRMPKDFPPFPQKLKFREPQREERICLVTTNFQTKSMSSMVSDTSCTFPSGDGIFWKHWIQTKDGQCGSPLVMTRDGFIVGIHSASNFTNTNNYFTSVPKNFMELLTNQEAQQWVSGWRLNADSVLWGGHKVFMVKPEEPFQPVKEATQL [S158M] | 0.0407 | 0.0498 | 0.0514 | 0.0524 | – | 0.0447 | 0.0379 | – | 0.0612 | 0.0602 | 0.0511 | 0.0519 | – | 0.0564 | 0.0454 | – | 0.0554 | – | 0.0776
MGESLFKGPRDYNPISSSICHLTNESDGHTTSLYGIGFGPFIITNKHLFRRNNGTLVVQSLHGVFKVKDTTTLQQHLVDGRDMIIIRMPKDFPPFPQKLKFREPQREERICLVTTNFQTKSMSSMVSDTSCTFPSGDGIFWKHWIQTKDGQCGSPLVSTRDGFIVGIHSASNFTNTNNYFTSVPKNFMELLTNQEAQQWVSGWALNADSVLWGGHKVFMVKPEEPFQPVKEATQL [R204A] | 0.143 | 0.131 | 0.138 | 0.107 | 0.124 | – | – | 0.15 | 0.202 | 0.117 | – | 0.0701 | 0.12 | 0.129 | – | 0.141 | 0.119 | 0.12 | 0.106
MGESLFKGPRDYNPISSSICHLTNESDGHTTSLYGIGFGPFIITNKHLFRRNNGTLVVQSLHGVFKVKDTTTLQQHLVDGRDMIIIRMPKDFPPFPQKLKFREPQREERICLVTTNFQTKRMSSMVSDTSCTFPSGDGIFWKHWIQTKDGQCGSPLVSTRDGFIVGIHSASNFTNTNNYFTSVPKNFMELLTNQEAQQWVSGWRLNADSVLWGGHKVFMVKPEEPFQPVKEATQL [S121R] | 0.145 | 0.111 | – | 0.141 | 0.0656 | 0.133 | – | 0.129 | 0.14 | 0.0937 | 0.131 | – | – | – | 0.0915 | 0.125 | 0.0942 | – | 0.129
MGESLFKGPRDYNPISSSICHLTNESDGHTTSLYGIGFGPRIITNKHLFRRNNGTLVVQSLHGVFKVKDTTTLQQHLVDGRDMIIIRMPKDFPPFPQKLKFREPQREERICLVTTNFQTKSMSSMVSDTSCTFPSGDGIFWKHWIQTKDGQCGSPLVSTRDGFIVGIHSASNFTNTNNYFTSVPKNFMELLTNQEAQQWVSGWRLNADSVLWGGHKVFMVKPEEPFQPVKEATQL [F41R] | 0.0417 | 0.0462 | – | – | 0.0498 | 0.049 | – | 0.0495 | 0.0797 | 0.0549 | 0.0516 | 0.0458 | 0.0509 | – | 0.0694 | 0.0627 | 0.0622 | 0.0526 | 0.0453
